Test results published in publication PMC7819943, “Rice protein-binding microarrays: a tool to detect cis-acting elements near promoter regions in rice”.
This is one part of the list.

What follows are sequences tested against T1, OsWOX13 (Oryza sativa, UniProt Q5QMM3 1-267) (assay: protein-binding microarray (RPBM); PBS, 2% BSA, 51.3 ng/ul salmon testes DNA, 50 uM zinc acetate, 200 nM TF, 25 C, 1 h; high values mean tight binding). Conditions: protein: recombinant; tags: N-terminal polyhistidine and DsRed monomer fusion (pET32a); label: CyDye5-dUTP incorporated in the synthesized complementary strand; 3' TTTTT single-stranded linker to array surface; dsDNA, one strand shown.
T1 sequence: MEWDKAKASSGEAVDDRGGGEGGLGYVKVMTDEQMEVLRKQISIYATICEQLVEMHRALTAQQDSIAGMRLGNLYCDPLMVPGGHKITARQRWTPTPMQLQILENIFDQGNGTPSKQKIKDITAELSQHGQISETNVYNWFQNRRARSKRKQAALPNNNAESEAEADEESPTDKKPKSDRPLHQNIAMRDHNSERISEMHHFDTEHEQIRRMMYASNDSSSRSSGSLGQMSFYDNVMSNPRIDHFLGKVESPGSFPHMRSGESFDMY
Outline: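 The binding signal is fluorescence intensity per array feature (arbitrary units). Readings came from an Axon 4000B scanner after a washed, 2% BSA-blocked, double-stranded custom Agilent array had been incubated for 1 h at 25 °C with 200 nM protein and 50 µM zinc acetate. The protein was a Ni–NTA-purified transcription factor fused N-terminally to polyhistidine and DsRed, expressed in E. coli BL21-CodonPlus.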

| Sequence | binding signal |
| --- | --- |
| TCAAATATGACTAAATTAGTAGTTAAGTAGTATGGGAGAACGGAGTCACCTAGTGCAG | 13400 fluorescence intensity (a.u.) |
| TATACGGCGTAAATCCGGATGATTGATGCTAGGGTATGTCCGGAGTCACCTAGTGCAG | 8690 fluorescence intensity (a.u.) |
| CAACAACTGTAATTTACTGCTTGCAGTGCTGAGTGTCTCCCGGAGTCACCTAGTGCAG | 4360 fluorescence intensity (a.u.) |
| CATATTAGATTGTAACATTTTGGAACAGATGGAGTAATAGCGGAGTCACCTAGTGCAG | 8490 fluorescence intensity (a.u.) |
| CGCCTCTCGATTGATTCCCCGAGCCGAGACGAGACGAGACCGGAGTCACCTAGTGCAG | 4140 fluorescence intensity (a.u.) |
| TATGATTTTACATGAAACTACGACCATAACCCGGTGAAATCGGAGTCACCTAGTGCAG | 6110 fluorescence intensity (a.u.) |
| TTTTCACTGTGATTACCACTGGGTAACGGTGATACTCCTACGGAGTCACCTAGTGCAG | 3870 fluorescence intensity (a.u.) |
| TCTCTAATTAATAAATATGCAATAATAACATACCCAAGCTCGGAGTCACCTAGTGCAG | 18100 fluorescence intensity (a.u.) |
| TGATTCCCTATCAAAATTTAAATTTGGTGTAGTTTTGTAACGGAGTCACCTAGTGCAG | 8870 fluorescence intensity (a.u.) |
| GGCATTGACGAGCACCTTAGAGTTGTGGTGGACCAAGGCGCGGAGTCACCTAGTGCAG | 8690 fluorescence intensity (a.u.) |
| CTCTGAATATAAATTGATCGGTAGTTAACAGGCACCGGCCCGGAGTCACCTAGTGCAG | 23900 fluorescence intensity (a.u.) |
| CTGGAAATTAAACAGGGCCTAAGTACGTATGTGTTGTAAGCGGAGTCACCTAGTGCAG | 10200 fluorescence intensity (a.u.) |
| CTATAATTTCTGGTTACGGTGGTGACAAGTCATGTGGGCTCGGAGTCACCTAGTGCAG | 13900 fluorescence intensity (a.u.) |
| GGAGGGGACCTTCTTAATTAATTACACAGCATCTACTTTGCGGAGTCACCTAGTGCAG | 4150 fluorescence intensity (a.u.) |
| AAGCCAATTTATCCGAGTCATTAGTTCAACTTCTACCACACGGAGTCACCTAGTGCAG | 4260 fluorescence intensity (a.u.) |
| ATCATGCTGTGATTAATTGTTATGCATATGTCAGTGTATGCGGAGTCACCTAGTGCAG | 24400 fluorescence intensity (a.u.) |
| CCTTCGTTTATTTTCTAATCTCAATCCTACTTCTATTTTCCGGAGTCACCTAGTGCAG | 3760 fluorescence intensity (a.u.) |
| GGAGCAATCACTGGCACACTGCTCTCTAACACACACACACCGGAGTCACCTAGTGCAG | 10300 fluorescence intensity (a.u.) |
| ATATAGACTACTTACAAATCTAATTACATAAACGAAAGCTCGGAGTCACCTAGTGCAG | 3690 fluorescence intensity (a.u.) |
| AGGTGTTGATTTTGGGTGGCGGGCCCAATCGGATAGGCCACGGAGTCACCTAGTGCAG | 3770 fluorescence intensity (a.u.) |
| AATGATTAGAATTTGGTAAAGTAGAGGACAAAGATAAAATCGGAGTCACCTAGTGCAG | 7910 fluorescence intensity (a.u.) |

| Sequence | binding signal |
| --- | --- |
| TTTTAAATTTCATTATATAATGATTAATTTGGGAATGAGGCGGAGTCACCTAGTGCAG | 30800 fluorescence intensity (a.u.) |
| AACAACTTTGATCATTATTTAAATTGTTAACAAATATATGCGGAGTCACCTAGTGCAG | 10800 fluorescence intensity (a.u.) |
| TATGATGACACAATTAACCGTAATTTCTAAACCAAATAATCGGAGTCACCTAGTGCAG | 21500 fluorescence intensity (a.u.) |
| ATGCCATATCTTGCAAGATTGATGAGTAGCCAATTATTACCGGAGTCACCTAGTGCAG | 6030 fluorescence intensity (a.u.) |
| TCCACATCATAAATTGTTGAGAGACTGCAAATCGTCTAGCCGGAGTCACCTAGTGCAG | 3640 fluorescence intensity (a.u.) |
| GCAGCTGCACTAATTGACATATGCATGCAGCAGCTTCAGTCGGAGTCACCTAGTGCAG | 19000 fluorescence intensity (a.u.) |
| CAATTAATAAATAAATTTGATACCTCAAATAAATAAGTCACGGAGTCACCTAGTGCAG | 7780 fluorescence intensity (a.u.) |
| ACTAATCTGATTGTGTCACTTGTGCGATTGATGGAGTTCACGGAGTCACCTAGTGCAG | 23900 fluorescence intensity (a.u.) |
| TTAATCACATGTTAATTAAATGTGTGGGTTAATTGTTGTTCGGAGTCACCTAGTGCAG | 36100 fluorescence intensity (a.u.) |
| CCCTAAATTTCCGCGAAATCAGCAACCGAACACAGATTAGCGGAGTCACCTAGTGCAG | 7110 fluorescence intensity (a.u.) |
| CATATTGATGCTAATGAATCTAGACATATATACCTATCTACGGAGTCACCTAGTGCAG | 3520 fluorescence intensity (a.u.) |
| CTGAAATTGTACACAAACAGTTTGGAATTTGGAGCAAGCACGGAGTCACCTAGTGCAG | 8330 fluorescence intensity (a.u.) |
| CTAAATTGAATCTATCCACTTTGCCTCCTAAACTCACCCCCGGAGTCACCTAGTGCAG | 54600 fluorescence intensity (a.u.) |
| CAAATTACGTATGTAAATTGCGAGACGAATCTATTAAGCACGGAGTCACCTAGTGCAG | 27200 fluorescence intensity (a.u.) |
| TAGTGACTGATTAAATTAATTACCACCCCATCCATTAACTCGGAGTCACCTAGTGCAG | 42800 fluorescence intensity (a.u.) |
| ACTATTATATTGATCAATTGATTACATAATTCACGTGTCGCGGAGTCACCTAGTGCAG | 43700 fluorescence intensity (a.u.) |
| ACATTTAATGATGAGCTTCATTCATTCTCATCTTGTTTGGCGGAGTCACCTAGTGCAG | 7730 fluorescence intensity (a.u.) |
| CCTAGATTTGACACGGGTGCTCGCATTTACGGCTAATTATCGGAGTCACCTAGTGCAG | 15000 fluorescence intensity (a.u.) |
| TTAATTGATTTGGAAATCCTCTAGTTATCTGGATTAGTTTCGGAGTCACCTAGTGCAG | 37300 fluorescence intensity (a.u.) |
| TTCTAGGATTTTCTCTAATTTATTAGAGCACCACGTGTCGCGGAGTCACCTAGTGCAG | 5320 fluorescence intensity (a.u.) |
| GATCACTTCAATTAAGCAGTTGTTGTACTTAGAGCTAAGACGGAGTCACCTAGTGCAG | 4300 fluorescence intensity (a.u.) |
